About 540 (0.36%) of roughly 150,000 compounds showed an effect of 50% or more. The list shows a part of the results.

The assay has as its system Plasmodium falciparum. In words: Primary screen in NF54 nanoGlo assay, in single point, at 2uM, 72h; a lower Z score goes with more inhibition. It counts as functional, Erythrocyte. The settings on record: timepoint 72 hour.
As for `CCS(=O)(=O)c1cccc(NC2CCC2)c1`, the “% Inhibition” value came out at 3% and the Z score is listed as -0.31.

For `C[C@H]1CN(Cc2ncccc2C(=O)O)CCN1c1ccccc1`, the “% Inhibition” value is listed as -5% and the Z score worked out at 0.63.

As for `Cc1cc(C)c(S(=O)(=O)NC2CCCC(C(=O)O)C2)s1` (stereo unspecified), the “% Inhibition” value is reported as 4% and the Z score is on record as -0.69.

Regarding `O=C(c1ccc2[nH]cnc2c1)N1CCN(C(=O)c2cc3cc(F)ccc3s2)CC1`, the “% Inhibition” value is given as -11% and the Z score is 1.43.

Turning to `COc1ccc(N2CCN(C(=O)Cn3cccc3-c3nnc(C4CCC4)o3)CC2)cc1`, the “% Inhibition” value is 3% and the Z score was -0.43.

Turning to `O=C(c1cc2n(n1)CCN(Cc1ccc(Cl)c(Cl)c1)C2=O)N1CCN(Cc2ccccc2)CC1`, the “% Inhibition” value is given as -1% and the Z score stood at 0.11.

Turning to `COc1ccc(CN2C[C@H]3CC[C@@H](C2)N(C(=O)c2nc(C)c[nH]2)C3)cc1`, the “% Inhibition” value was -2% and the Z score worked out at 0.32.

As for `COC(=O)[C@@H]1C[C@H](O)CCN1C(=O)C1CCCCC1`, the “% Inhibition” value amounted to 8% and the Z score is -1.01.

As to `CS(=O)(=O)CCCNc1cc(F)ccc1OC(F)F`, the “% Inhibition” value is -7% and the Z score is on record as 0.61.

For the compound `Cc1n[nH]nc1C(=O)NC(Cc1ccccc1)[C@H]1C[C@H](O)C1` (stereo partly specified), the “% Inhibition” value is recorded as -15% and the Z score turned out to be 1.37.

`CCNS(=O)(=O)CCNC(=O)[C@H](CC)c1cccc(C(F)(F)F)c1`: the “% Inhibition” value is on record as -3% and the Z score is given as 0.33.

For `COc1ccc2cc1Oc1cccc(c1)CO[C@H]1CCN(C(=O)C(C)(C)N3CCOCC3)C[C@H]1NC(=O)CC2`, the “% Inhibition” value is recorded as -10% and the Z score was found to be 1.86.

Consider `Cc1nc(CNC(=O)c2c(C)n[nH]c2C2CC2)cs1`, for which the “% Inhibition” value is recorded as 15% and the Z score is listed as -1.9.

In the case of `O=C(NC[C@H]1CCCO1)c1cnc(Cc2c(Cl)cccc2Cl)nc1O`, the “% Inhibition” value was -8% and the Z score worked out at 1.29.

For the compound `CC(C)c1cc(C(=O)N2CC[C@@](O)(C(F)F)C2)no1`, the “% Inhibition” value worked out at 0% and the Z score was 0.05.

With `Cc1nc(C2(CC3CC3)CCN(S(=O)(=O)c3ccc(F)c(F)c3)CC2)no1`, the “% Inhibition” value was -2% and the Z score was 0.26.

Consider `CN(CCc1ccncc1)S(=O)(=O)C1CN(C(=O)C2CCCC2)C1`, for which the “% Inhibition” value worked out at 0% and the Z score was determined as 0.05.

For the compound `O=C(N[C@H]1CCN(CC2CCCC2)C1)c1nccc2cccnc12`, the “% Inhibition” value is 36% and the Z score is -4.29.

As to `CCc1ncsc1C(=O)Nc1ccc2nc(N3CCCC3)sc2c1`, the “% Inhibition” value is -2% and the Z score was determined as 0.23.

With `O=C(Cn1cc2ccccc2n1)N[C@H]1CCOC[C@@H]1Oc1ccccn1`, the “% Inhibition” value was -6% and the Z score amounted to 1.03.

For `COc1cc2c(cc1OC)CC(=O)N(CC(=O)NCCN1CCOCC1)C=C2`, the “% Inhibition” value is reported as -4% and the Z score was determined as 0.52.

Regarding `COC(=O)CCn1cc(-c2cc(-c3ccc(OC)nc3)nc(N)c2C#N)cn1`, the “% Inhibition” value is on record as -14% and the Z score worked out at 1.76.

Turning to `CCc1cc(CNC(=O)NCc2ccco2)[nH]n1`, the “% Inhibition” value was -9% and the Z score was 1.58.

A word on the % Inhibition: it is the change of the read-out against control, counted positive when it falls.

Values taken from ChEMBL document CHEMBL4888484, “Replenishing the malaria drug discovery pipeline: Screening and hit evaluation of the MMV Hit Generation Library 1 (HGL1) against asexual blood stage Plasmodium falciparum ,using a nano luciferase reporter read-out” (2022).
